# Some of the results follow.
# Test system: PfHDP1 homeodomain (GST-tagged)
# Assay: gcPBM binding intensity (ln(normalized median fluorescence intensity)); higher = stronger DNA binding
# Procedure, shortened: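 Using an Agilent 4 × 180k array, primer-extended double-stranded 36-bp intergenic genomic probes and negative controls were exposed for 1 h to GST-fused P. falciparum DNA-binding domains expressed in E. coli. Binding was carried out in 1× PBS with 1% milk, 0.2 mg/ml BSA, 0.5% salmon testes DNA and 0.03% Triton X-100, and protein was detected with Alexa488 anti-GST antibody and a 488 nm scan. Binding intensity is the highest Masliner-normalised natural-log median intensity across replicate spots of either probe orientation.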
row,Sequence,gcPBM binding intensity (ln)
1,ATATAATTTATATATTCACACAAGGAATACTTTTAT [CACACA_site5506],6.23
2,AATTGAAAAAGAAATTGTACATTTTATTTTTATTAT [XGTACX_site1973],6.18
3,ATATATATATATATATGTACTTATGTCATCATTAAA [XGTACX_site5316],9.37
4,CATTTAAAATTTGTTTGTACATATATATATATATAT [XGTACX_site6729],9.34
5,TTTTACAATAACAATACACACTATAATATGTAAATA [CACACA_site6772],6.57
6,TATATGTATGTTTGTGTGCACACATAAATATTATAT,10.5
7,AATGTACAAATACGTACACACATATATATATATATA [CACACA_site1542],9.39
8,AAATAAAGGAAATGTATATCAACATTAAAATAAGGC [CACACA_negctrl_site441],6.92
9,GTATAAAATATTTTATGTACATAATATATATATATA [XGTACX_site2489],8.9
10,ATATACATAATTTGGAGTACAATATCATATAAATAT [XGTACX_site6334],6.4
11,AGTAAATTTGATGGTCGTACAAAAAAAAAGTAGGAC [XGTACX_site2600],6.81
12,ACGAAGTATATGAATACACACATATTTTTAATGAAA [CACACA_site4070],6.12
13,ATATATATATATATTGCACACACAATTATTATTATT [CACACA_site8721],10.6
14,ATATATATATATATATGTACATATTTTTGTTTGATG [XGTACX_site51],9.27
15,CAGATATTCATATAAACACACATACAAATTATGTAT [CACACA_site4258],6.49
16,TACAATCTAAAATACACACGCACACCGAAAAAAAAA [CACACA_site3520],6.95
17,TATATATATAATTAAGCATGCTAGAAACCTTTGAAA [TGCATGCA_site489],6.66
18,TGAAGAATATTTTTCACACATATATATATATATATA [CACACA_site6080],9.36
19,TAACATATAAGTGTGTGTACGTACTGCGTATAATAT [XGTACX_site8597],7.15

row,Sequence,gcPBM binding intensity (ln)
1,TGAATATATAAATATGCACACTTCTATTATAAATAA [CACACA_site5796],8.8
2,GACAAACAATATGAATGTACATAAAAATATAACTAA [XGTACX_site1167],6.77
3,TTGTTCTTATTTCATTTTTATATGATATTTCATTAT [CACACA_negctrl_site1619],6.79
4,AATATTTATTTAATTTCACACAGGTCTTTTTTTTTT [CACACA_site5188],6.16
5,TATTTATTGTGACACTTTTATTATTTTATGATAAAA [CACACA_negctrl_site37],6.6
6,GTGTTCTTGTTATACACACACATATATATATATATA [CACACA_site1032],9.45
7,TGAAAGAAGCATAAATGTACACACATATTTATATAT [XGTACX_site2645],6.55
8,GAGAAAAGGAAATAACGTACACATATGCATATCCAA [XGTACX_site5858],6.96
9,GTAATATTTTATAGTAGTACATATTTTTATTATTTT [XGTACX_site3333],6.15
10,GAGAGGTCAGTTCACAGTACCCAGAAACTCTACGAG [XGTACX_site2559],5.91
11,AAAAAAATTAATATGTCAGCACATATATACATACAT [GTGCAC_negctrl_site110],6.17
12,TATATATATAAAAAAGCACACATACATACATACATA [CACACA_site8196],7.15
13,TTTTATCGTTTTTTTTTTTTTTTTTTTTTTTTTTTT [CACACA_negctrl_site1309],7.33
14,TTTGTTCATATGAAATGTACAAAAAAAAAAAAAAAA [XGTACX_site8849],6.12
15,CCTTATAAATACTGCACACATAAAATATATATTATC [CACACA_site2806],9.18
16,ATGTAGAAGTAATGCACACATATGTATTTATATATA [CACACA_site5391],10.9
17,TTTTAACATATAAGTACACACATATAATCAATCATA [CACACA_site2325],6.5
18,ATAAACGTTTTTGAAAGTACATATCATTCATTTGAT [XGTACX_site200],6.53
19,ATATAATATTTATATGTACACACCTTAATCCTTAAA [CACACA_site3555],6.68

row,Sequence,gcPBM binding intensity (ln)
1,AAAAAAAAGAAAAAAAAAAAAAAAAAAAAAAAAAAA [CACACA_negctrl_site489],5.92
2,CGCACACGCAGACACACACACACATATAAATAAATA [CACACA_site7101],6.87
3,ATATATATATATAAATGTACAGGCTTATCTCTTATT [XGTACX_site1828],9.02
4,TGTATTATATATGTGTGTACATATTTTTTTTTTTTT [XGTACX_site3351],6.54
5,ATACAAATTTATATTTCACACATTATTATATACTTA [CACACA_site6034],6.69
6,TCTGAAAATTAGAAAAGTACAAAATGGTATAGGAAA [XGTACX_site4396],6.82
7,AAATTATTTCAAATGTTGCACTAAAAATAAAATTAT [GTGCAC_site9460],8.78
8,ATTAGTATATTTCTCTGTACTTACATTAAAATATAA [XGTACX_site2217],6.41
9,TTTTATCAATAAATTCGTACACATGAACTAGAGAGT [XGTACX_site5758],6.76
10,TTTTTATTTATATTTCATTGAAGTTAAATTATTTTA [XGTACX_negctrl_site575],5.88
11,TACATTCTAATAATTGCACACTGGTTATTAAAAGGA [CACACA_site1614],9.45
12,TCCTTAAAATATGGTTGTACGTACATCCTAGGTGTT [XGTACX_site7068],6.52
13,AATTTAATATTCATCTCTAAAGCTATAACAATTACT [CACACA_negctrl_site1079],6.07
14,AAAAAAAAAAATACTTGTACTTATATAATATATTAT [XGTACX_site8333],6.16
15,AAGAAAATATAAAATGCACACTATAAATTGTATATA [CACACA_site7928],9.72
16,AAAAAAAAAAAAAATTGTACATTAAATTAAAAGAAA [XGTACX_site8708],6.14
17,TGTTGTTCCAATTTTTGTACATAAAACATATATATA [XGTACX_site5719],7.04
18,TTTTTTTTTTTGGCTAGTACATATGTATTTAAAATG [XGTACX_site7770],6.41

# Source: the supplement of paper PMC11417369
